Holding throughout (experiment): Primary Screen for Target Class Profiling of Small Molecule Inhibitors of Methyltransferases
In assay [1] the target is Glycine N-methyltransferase (Homo sapiens) (UniProt Q14749). The settings on record: purified enzyme, MTase-Glo SAH luminescence; measured here: GNMT inhibition; at 40 µM; stronger effect = lower value. Put shortly:
(§1)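 Each enzyme was reacted with SAM and its substrate, with compounds tested once at 40 uM; SAH formed was read by MTase-Glo luminescence.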

Assay [2] concerns the target Guanidinoacetate N-methyltransferase (Homo sapiens) (UniProt Q14353). The settings on record: purified enzyme, MTase-Glo SAH luminescence; measured here: GAMT inhibition; at 40 µM; stronger effect = lower value. The method in brief: as §1
In assay [3] the target is Histamine N-methyltransferase (Homo sapiens) (UniProt P50135). The settings on record: purified enzyme, MTase-Glo SAH luminescence; measured here: HNMT inhibition; at 40 µM; stronger effect = lower value. Put shortly: as §1
Assay [4] concerns the target Nicotinamide N-methyltransferase (Homo sapiens) (UniProt P40261). The following applies: purified enzyme, MTase-Glo SAH luminescence; measured here: NNMT inhibition; at 40 µM; stronger effect = lower value. The method in brief:
as §1

Assay [5] has as its target Phenylethanolamine N-methyltransferase (Homo sapiens) (UniProt P11086). The following applies: purified enzyme, MTase-Glo SAH luminescence; measured here: PNMT inhibition; at 40 µM; stronger effect = lower value. Put shortly:
as §1

Each structure is given as a SMILES string. This is one part of the list. Further columns of the screen follow, without active or inactive calls.
% is scaled to controls: 0 for no effect and ±100 for the full control effect.

As for `O=S(=O)(NCCn1cc(-c2cncnc2)nn1)c1ccc(Cl)cc1`, the activity change, negative = inhibition in assay [1] is -5.39%; in assay [2] it was -6.9%; in assay [3] it was -2.27%; in assay [4], -10.6%; in assay [5] it was -9.4%.

As to `C[C@]1(CO)CCC[C@]2(C)C3=C(CCC12)COC3` (stereo not given in full), the activity change, negative = inhibition was 6.81% in assay [1]; 5.72% in assay [2]; 11.7% in assay [3]; -7% in assay [4]; 2.09% in assay [5].

Take `Cc1nc(Cn2ccnc2-c2cn(C3CCNCC3)nn2)cs1`: the activity change, negative = inhibition in assay [1] is -6.94%; in assay [2] it was -8.81%; in assay [3], -8.79%; in assay [4] it was -15%; in assay [5] it was -12.4%.

Take `CC(C)CCn1c(=O)c2ccccc2n2c(=O)n(Cc3ccccc3F)nc12`: the activity change, negative = inhibition in assay [1] is -5.64%; in assay [2] it was 4.87%; in assay [3], 1.49%; in assay [4], -11.3%; in assay [5], -2.38%.

Regarding `O=C(Cn1ccc2cc(S(=O)(=O)N3CCCCC3)ccc21)NC1CC1`, the activity change, negative = inhibition in assay [1] was 6.89%; in assay [2], 0.982%; in assay [3], 1.89%; in assay [4], 11.3%; in assay [5], 3.43%.

Regarding `COc1cc(CC(COC2OC(CO)C(O)C(O)C2O)c2cc(/C=C/CO)cc(OC)c2O)ccc1O` (stereo not given), the activity change, negative = inhibition in assay [1] was 4.09%; in assay [2], 0.42%; in assay [3] it was 8.33%; in assay [4], -8.62%; in assay [5], -1.45%.

As for `O=C1CCC2(C(=O)NCCN3CCOCC3)CCCC=C2N1C1CCCC1` (stereo not given), the activity change, negative = inhibition in assay [1] is 1.81%; in assay [2], 2.21%; in assay [3], 0.162%; in assay [4], -0.173%; in assay [5], 1.18%.

For the compound `Cc1cccc(-c2[nH]c(CNc3ccccc3F)nc2-c2ccc3ncnn3c2)n1`, the activity change, negative = inhibition is 2.16% in assay [1]; 2.23% in assay [2]; 3.84% in assay [3]; -16.6% in assay [4]; -0.443% in assay [5].

For the compound `CC1(C)CCCC2(C)C1C(O)C=C(CO)C2(O)C(=O)O` (stereo not given), the activity change, negative = inhibition was -7.78% in assay [1]; 2.8% in assay [2]; 5.55% in assay [3]; -9.35% in assay [4]; 3.64% in assay [5].

Regarding `NC(=O)CCNC(=O)C1=C[C@@H](NC(=O)c2cccs2)[C@@H](O)[C@H](O)C1`, the activity change, negative = inhibition in assay [1] was -3.34%; in assay [2], -4.81%; in assay [3], -0.379%; in assay [4], -7.31%; in assay [5] it was -4.47%.

On to `COc1ccccc1CNC(=O)CN(C)S(=O)(=O)c1ccc2[nH]c3c(c2c1)CCCC3`, for which the activity change, negative = inhibition in assay [1] was 1.37%; in assay [2] it was 0.708%; in assay [3], 4.3%; in assay [4] it was -4.97%; in assay [5], 3.22%.

With `CCc1nc2c(c(-c3ccc(Cl)cc3)n1)CN(Cc1ccccn1)CC2`, the activity change, negative = inhibition in assay [1] is -5.98%; in assay [2], -0.188%; in assay [3], -3.96%; in assay [4], -8.31%; in assay [5], -8.56%.

Regarding `Cn1ccnc1CN1CC2(CCN(C(=O)C3CC3)CC2)CC1C(=O)O` (stereo not given), the activity change, negative = inhibition in assay [1] is 0.988%; in assay [2] it was 3.48%; in assay [3], 1.39%; in assay [4], -1.46%; in assay [5] it was 1.92%.

With `CCn1c(CO)nnc1C1CC(NC(=O)Cn2ncc3ccccc32)C1` (stereo not given), the activity change, negative = inhibition in assay [1] is -2.71%; in assay [2], -1.32%; in assay [3], -0.545%; in assay [4], -0.362%; in assay [5], -0.1%.

Take `Cc1cc(C)n(-c2ccc(C(=O)N[C@H]3C[C@H]4C(=O)NCC(=O)N4C3)cc2)n1`: the activity change, negative = inhibition in assay [1] is -1.19%; in assay [2], 1.18%; in assay [3], -0.433%; in assay [4], 0.977%; in assay [5] it was 3.85%.

Regarding `CCCS(=O)(=O)Nc1ccc(F)c(C(=O)c2c[nH]c3ncc(-c4ccc(Cl)cc4)cc23)c1F`, the activity change, negative = inhibition was -8.45% in assay [1]; -12.7% in assay [2]; 1.44% in assay [3]; -51% in assay [4]; -19.8% in assay [5].

As to `Cc1cccc(CN2C(=O)c3ccc(-c4ccco4)n3CC2(C)C(=O)NCc2ccc(Cl)cc2)c1` (stereo not given), the activity change, negative = inhibition in assay [1] was -5.7%; in assay [2], 2.58%; in assay [3], -4.49%; in assay [4] it was -8.35%; in assay [5], -6.87%.

Take `Cn1ccnc1CCOC(c1cc2nccc(C(=O)O)c2[nH]1)c1ccccc1Cl` (stereo not given): the activity change, negative = inhibition was -1.71% in assay [1]; -3.55% in assay [2]; -6.27% in assay [3]; -18.1% in assay [4]; 1.15% in assay [5].

Consider `COc1cc(C2Nc3c(cccc3C(F)(F)F)C3C=CCC32)cc(Br)c1OC` (stereo not given), for which the activity change, negative = inhibition in assay [1] was -8.79%; in assay [2], -0.232%; in assay [3], -9.05%; in assay [4] it was -10.5%; in assay [5] it was -9.98%.

For the compound `CC(C)NC(=O)c1ccc2c(=O)n(C(C)C)c3nn(Cc4ccc(F)cc4)c(=O)n3c2c1`, the activity change, negative = inhibition in assay [1] was 2.52%; in assay [2], 4.53%; in assay [3], 8.79%; in assay [4], -3%; in assay [5] it was 5.33%.

For `CSCCC(=O)N1CCCC1C(=O)Nc1cccc(-n2cccn2)c1` (stereo not given), the activity change, negative = inhibition was -28.3% in assay [1]; -6.42% in assay [2]; -2.68% in assay [3]; -9.01% in assay [4]; -2.34% in assay [5].

With `CCCC1c2cccn2CCN1C(=O)NC1(CC(=O)OCC)CCCCC1` (stereo not given), the activity change, negative = inhibition in assay [1] is -6.16%; in assay [2], 4.68%; in assay [3], -16.9%; in assay [4], -6.79%; in assay [5], -35.9%.

In the case of `COc1ccc(CNC(=O)c2cnc3c(c2)N(C(=O)CCc2ccccc2)CCC3)cc1OC`, the activity change, negative = inhibition in assay [1] is -11.9%; in assay [2] it was -1.58%; in assay [3] it was -12.8%; in assay [4], -7.71%; in assay [5], 5.76%.

Take `COc1ccccc1CNC(=O)C1(C)Cn2c(cc3ccccc32)C(=O)N1Cc1cccnc1` (stereo not given): the activity change, negative = inhibition is -3.63% in assay [1]; 3.71% in assay [2]; -2.23% in assay [3]; -8.47% in assay [4]; -4.78% in assay [5].

Turning to `COCC(=O)N[C@@H]1CN(C(=O)Cc2cccc(OC)c2)CC[C@@H]1c1nc(C)no1`, the activity change, negative = inhibition was -5.29% in assay [1]; -2.18% in assay [2]; -2.29% in assay [3]; -4.35% in assay [4]; 12.8% in assay [5].

For `CCCCNC(=O)NS(=O)(=O)c1ccc(C)cc1`, the activity change, negative = inhibition is 2.14% in assay [1]; 9.55% in assay [2]; 3.54% in assay [3]; -2.65% in assay [4]; 5.48% in assay [5].

`C[C@@H]1O[C@@H](O[C@H]2[C@H](Oc3cc(O)c(C(=O)CCc4ccc(O)cc4)c(O)c3)O[C@H](CO)[C@@H](O)[C@@H]2O)[C@H](O)[C@H](O)[C@H]1O`: the activity change, negative = inhibition in assay [1] was 4.61%; in assay [2] it was 3.69%; in assay [3] it was 12%; in assay [4], -8%; in assay [5] it was 2.29%.

Take `COc1cc(/C=C/C(=O)OC2[C@H](O)CC(O)(C(=O)O)C[C@H]2O)ccc1O` (stereo not given in full): the activity change, negative = inhibition in assay [1] is 3.57%; in assay [2] it was 2.34%; in assay [3], 8.77%; in assay [4], -8.38%; in assay [5], -3.36%.

As to `CCC(C)NC(=O)c1ccc2c(=O)n(C)c3nn(CC(=O)c4cccc(OC)c4)c(=O)n3c2c1` (stereo not given), the activity change, negative = inhibition in assay [1] was 4.69%; in assay [2], 1.85%; in assay [3], 8.72%; in assay [4] it was -0.893%; in assay [5], 7.29%.

These data come from PubChem BioAssay AID1745853 (National Center for Advancing Translational Sciences (NCATS), 2022).
